Changes are numbered by the printed parent chain. Results are given in words; binding and its absence hold for the method and conditions named. Binding seen in cells or lysates may run through a third protein. Some results given as binding are weak or reduced against the parent protein; the word gives no strength. For part of these data: Sequences can lack the tags named with a protein.
Key:
[1] = biological target: T1, GST-SH3 (C-terminal domain of LASP1) (human) (UniProt Q14847); experiment: pull-down; 1.5 nmol GST fusion on glutathione beads incubated overnight at 4 °C with 200 µg nuclear lysate of 293-CXCR4 cells transiently expressing Flag-Snail1-WT and stimulated with 20 nM CXCL12; 50 mM Tris-HCl pH 7.5, 0.05% Triton X-100, 100 mM NaCl; immunoblot; only the target purified
T1 sequence: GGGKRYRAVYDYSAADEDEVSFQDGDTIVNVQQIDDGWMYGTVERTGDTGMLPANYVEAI

Chains of the proteins cited; added tags and fusions are not shown.
UniProt O95863: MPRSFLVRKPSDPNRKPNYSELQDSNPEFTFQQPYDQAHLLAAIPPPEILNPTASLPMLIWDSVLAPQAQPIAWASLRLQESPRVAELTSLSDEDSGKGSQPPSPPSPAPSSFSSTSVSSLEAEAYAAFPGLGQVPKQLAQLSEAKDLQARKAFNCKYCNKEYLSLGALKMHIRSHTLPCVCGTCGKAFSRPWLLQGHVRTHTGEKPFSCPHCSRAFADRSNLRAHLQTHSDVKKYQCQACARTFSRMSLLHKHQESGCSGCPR
UniProt P49841: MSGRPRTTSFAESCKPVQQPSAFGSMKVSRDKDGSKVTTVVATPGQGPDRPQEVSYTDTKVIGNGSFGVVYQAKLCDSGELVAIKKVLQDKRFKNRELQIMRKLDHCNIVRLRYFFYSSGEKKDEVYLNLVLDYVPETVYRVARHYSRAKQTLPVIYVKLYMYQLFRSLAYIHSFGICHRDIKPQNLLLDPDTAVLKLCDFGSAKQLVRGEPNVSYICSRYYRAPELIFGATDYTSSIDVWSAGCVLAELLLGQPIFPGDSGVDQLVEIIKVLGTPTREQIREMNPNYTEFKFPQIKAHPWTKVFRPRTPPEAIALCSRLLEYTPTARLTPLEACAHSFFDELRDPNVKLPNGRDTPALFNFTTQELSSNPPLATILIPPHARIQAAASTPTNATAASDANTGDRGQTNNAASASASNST

[2] = biological target: T2, GST-LASP1 (full length, wild type) (human) (UniProt Q14847); experiment: as above
T2 sequence: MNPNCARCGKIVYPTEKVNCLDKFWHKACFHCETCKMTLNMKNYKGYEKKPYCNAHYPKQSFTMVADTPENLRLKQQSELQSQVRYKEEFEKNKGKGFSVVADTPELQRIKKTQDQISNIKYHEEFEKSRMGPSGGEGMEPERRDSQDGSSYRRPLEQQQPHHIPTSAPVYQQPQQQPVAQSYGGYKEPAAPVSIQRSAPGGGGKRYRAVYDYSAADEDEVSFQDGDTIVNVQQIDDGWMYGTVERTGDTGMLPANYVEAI

[3] = biological target: T3, GST-LASP1 S146D (full length, phosphomimetic) (human) (UniProt Q14847); experiment: pull-down; 1.5 nmol GST fusion on glutathione beads incubated overnight at 4 °C with 250 µg nuclear lysate of serum-starved, CXCL12-stimulated (20 nM) MDA-Bone-Un cells; 50 mM Tris-HCl pH 7.5, 0.05% Triton X-100, 100 mM NaCl; immunoblot of endogenous proteins; only the target purified
T3 sequence: T2 sequence with S146D

[4] = biological target: T4, LASP1 (LIM and SH3 protein 1), endogenous nuclear (human (endogenous in MDA-Bone-Un)) (UniProt Q14847); experiment: condition: only cells pre-incubated with the CXCR4 antagonist AMD3465 before CXCL12; co-IP; as a3, but cells pre-incubated with the CXCR4 antagonist AMD-3465 for 30 min before CXCL12
T4 sequence: T2 sequence

[5] = biological target: T4, LASP1 (LIM and SH3 protein 1), endogenous nuclear (human (endogenous in MDA-Bone-Un)); experiment: co-IP; endogenous LASP1 immunoprecipitated with mouse anti-LASP1 (8C6) from 250 µg nuclear extract of serum-starved MDA-Bone-Un cells stimulated with 20 nM CXCL12 for 20 min; immunoblot
[6] = biological target: T5, GST-LASP1 Y171F (full length, phosphonull) (human) (UniProt Q14847); experiment: pull-down; 1.5 nmol GST fusion on glutathione beads incubated overnight at 4 °C with 250 µg nuclear lysate of serum-starved, CXCL12-stimulated (20 nM) MDA-Bone-Un cells; 50 mM Tris-HCl pH 7.5, 0.05% Triton X-100, 100 mM NaCl; immunoblot of endogenous proteins; only the target purified
T5 sequence: T2 sequence with Y171F

[7] = biological target: T6, GST-LASP1 Y171D (full length, phosphomimetic) (human) (UniProt Q14847); experiment: as above
T6 sequence: T2 sequence with Y171D

[8] = biological target: T7, GST-LASP1 S146A (full length, phosphonull) (human) (UniProt Q14847); experiment: as above
T7 sequence: T2 sequence with S146A

[9] = biological target: T2, GST-LASP1 (full length, wild type) (human); experiment: as above

binding [1]	binding [2]	binding [3]	binding [4]	binding [5]	binding [6]	binding [7]	binding [8]	binding [9]	Substance
binds	binds								Flag-Snail1-WT (from UniProt O95863 1-264)
		no binding	no binding	binds					GSK-3β (Glycogen synthase kinase-3β), endogenous (from UniProt P49841 1-420)
		binds	no binding	binds	binds	binds	binds	binds	Snail1 (Snail family transcriptional repressor), endogenous (from UniProt O95863 1-264)

— paper PMC7563118
